Assay results published in PMC11116815.
No constants are given. Whether binding was seen depends on the method and setting. Binding seen in cells or lysates may run through a third protein. Some binding calls cover weakened binding; strength is not graded here. For some assays here: Sequences can lack the tags named with a protein.

The chains behind the UniProt entries cited, without tags or fusion partners. Residues count along the entry.
UniProt P37288: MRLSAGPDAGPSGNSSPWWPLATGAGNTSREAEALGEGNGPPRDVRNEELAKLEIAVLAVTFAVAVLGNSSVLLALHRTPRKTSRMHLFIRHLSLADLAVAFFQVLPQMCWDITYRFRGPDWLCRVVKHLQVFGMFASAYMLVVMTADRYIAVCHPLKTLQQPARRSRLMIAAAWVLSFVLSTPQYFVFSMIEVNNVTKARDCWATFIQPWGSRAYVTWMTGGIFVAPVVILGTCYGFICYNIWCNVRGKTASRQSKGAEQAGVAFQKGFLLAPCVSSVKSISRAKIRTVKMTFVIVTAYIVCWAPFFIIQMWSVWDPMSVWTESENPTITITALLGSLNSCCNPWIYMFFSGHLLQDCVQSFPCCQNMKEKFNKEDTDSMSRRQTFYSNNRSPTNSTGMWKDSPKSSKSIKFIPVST
UniProt P41597: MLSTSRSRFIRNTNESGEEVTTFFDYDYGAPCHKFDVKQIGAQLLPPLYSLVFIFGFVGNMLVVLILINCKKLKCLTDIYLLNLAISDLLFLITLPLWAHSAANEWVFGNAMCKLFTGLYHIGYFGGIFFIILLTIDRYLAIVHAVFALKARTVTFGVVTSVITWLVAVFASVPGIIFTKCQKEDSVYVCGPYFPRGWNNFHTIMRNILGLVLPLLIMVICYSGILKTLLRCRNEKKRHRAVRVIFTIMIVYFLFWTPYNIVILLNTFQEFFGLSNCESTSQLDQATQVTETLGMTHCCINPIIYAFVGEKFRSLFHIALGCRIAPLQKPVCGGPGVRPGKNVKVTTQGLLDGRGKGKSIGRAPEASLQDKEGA
UniProt P49682: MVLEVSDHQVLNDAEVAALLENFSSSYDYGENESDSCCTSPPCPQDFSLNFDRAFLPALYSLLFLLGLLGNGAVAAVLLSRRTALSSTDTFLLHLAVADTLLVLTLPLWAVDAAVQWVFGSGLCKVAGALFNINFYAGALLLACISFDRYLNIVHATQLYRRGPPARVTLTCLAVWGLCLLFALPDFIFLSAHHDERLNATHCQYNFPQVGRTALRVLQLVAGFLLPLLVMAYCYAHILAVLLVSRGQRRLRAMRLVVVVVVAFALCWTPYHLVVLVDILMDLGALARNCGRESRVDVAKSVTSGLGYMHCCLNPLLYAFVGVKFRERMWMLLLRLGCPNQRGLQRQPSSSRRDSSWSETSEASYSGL
UniProt P32302: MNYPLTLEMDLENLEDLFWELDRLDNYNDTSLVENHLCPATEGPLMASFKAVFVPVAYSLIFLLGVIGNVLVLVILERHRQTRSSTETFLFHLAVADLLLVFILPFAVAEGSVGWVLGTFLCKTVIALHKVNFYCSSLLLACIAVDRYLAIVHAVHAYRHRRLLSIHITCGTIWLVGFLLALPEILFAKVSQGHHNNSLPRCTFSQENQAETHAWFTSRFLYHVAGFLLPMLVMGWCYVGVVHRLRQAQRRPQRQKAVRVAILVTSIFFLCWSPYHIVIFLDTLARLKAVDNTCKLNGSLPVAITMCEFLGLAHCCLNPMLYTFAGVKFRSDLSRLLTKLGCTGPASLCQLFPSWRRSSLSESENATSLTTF
UniProt P61073: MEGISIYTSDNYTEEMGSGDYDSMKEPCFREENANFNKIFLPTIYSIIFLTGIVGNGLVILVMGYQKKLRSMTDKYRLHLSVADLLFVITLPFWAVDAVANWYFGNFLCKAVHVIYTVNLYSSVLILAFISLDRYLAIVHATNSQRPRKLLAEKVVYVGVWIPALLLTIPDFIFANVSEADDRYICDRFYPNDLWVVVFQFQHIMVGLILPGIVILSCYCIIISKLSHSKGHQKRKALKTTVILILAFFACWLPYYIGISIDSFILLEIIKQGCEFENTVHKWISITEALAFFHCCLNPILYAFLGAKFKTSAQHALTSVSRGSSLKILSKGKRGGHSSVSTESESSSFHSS
UniProt Q13255, residues 19-1194: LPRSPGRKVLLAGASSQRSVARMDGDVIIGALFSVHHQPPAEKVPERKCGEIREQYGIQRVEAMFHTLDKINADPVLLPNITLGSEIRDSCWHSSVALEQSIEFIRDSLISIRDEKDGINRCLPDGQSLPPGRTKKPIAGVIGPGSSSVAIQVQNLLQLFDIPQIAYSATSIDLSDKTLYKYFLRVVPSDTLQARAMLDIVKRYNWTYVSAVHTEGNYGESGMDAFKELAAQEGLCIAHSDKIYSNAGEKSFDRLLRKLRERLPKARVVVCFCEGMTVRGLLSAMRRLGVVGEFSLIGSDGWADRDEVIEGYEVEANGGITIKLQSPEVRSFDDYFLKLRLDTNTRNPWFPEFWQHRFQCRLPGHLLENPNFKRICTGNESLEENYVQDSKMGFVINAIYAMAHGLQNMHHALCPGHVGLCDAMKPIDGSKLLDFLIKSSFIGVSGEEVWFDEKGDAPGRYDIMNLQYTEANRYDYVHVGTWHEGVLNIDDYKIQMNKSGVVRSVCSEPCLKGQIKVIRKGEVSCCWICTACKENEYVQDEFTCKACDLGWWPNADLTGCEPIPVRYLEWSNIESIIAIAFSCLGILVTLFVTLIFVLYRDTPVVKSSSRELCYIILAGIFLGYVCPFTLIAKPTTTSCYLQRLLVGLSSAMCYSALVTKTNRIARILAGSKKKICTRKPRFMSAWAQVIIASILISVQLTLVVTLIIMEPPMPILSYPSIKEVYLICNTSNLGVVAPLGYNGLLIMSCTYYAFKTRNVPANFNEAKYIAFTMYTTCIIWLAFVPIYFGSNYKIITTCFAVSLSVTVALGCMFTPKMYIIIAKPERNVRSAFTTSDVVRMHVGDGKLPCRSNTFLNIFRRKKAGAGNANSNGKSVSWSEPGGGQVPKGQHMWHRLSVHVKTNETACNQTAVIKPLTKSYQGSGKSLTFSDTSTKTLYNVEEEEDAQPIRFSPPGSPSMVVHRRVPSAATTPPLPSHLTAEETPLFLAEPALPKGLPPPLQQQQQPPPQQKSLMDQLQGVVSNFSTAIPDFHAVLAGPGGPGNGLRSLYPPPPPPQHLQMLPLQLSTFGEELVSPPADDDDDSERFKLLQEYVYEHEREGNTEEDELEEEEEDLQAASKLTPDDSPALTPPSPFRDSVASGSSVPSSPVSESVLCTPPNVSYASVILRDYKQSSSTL
UniProt P51685: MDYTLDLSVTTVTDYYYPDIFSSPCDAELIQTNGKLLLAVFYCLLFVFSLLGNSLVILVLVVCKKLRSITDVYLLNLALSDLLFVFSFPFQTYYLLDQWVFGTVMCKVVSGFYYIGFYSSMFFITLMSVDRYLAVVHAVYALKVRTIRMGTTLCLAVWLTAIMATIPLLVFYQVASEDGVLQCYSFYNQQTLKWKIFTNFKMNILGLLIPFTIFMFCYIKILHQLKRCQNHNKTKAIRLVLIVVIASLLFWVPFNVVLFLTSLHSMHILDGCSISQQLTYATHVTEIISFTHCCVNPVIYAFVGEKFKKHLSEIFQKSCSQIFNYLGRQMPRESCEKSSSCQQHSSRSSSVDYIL
UniProt P25025: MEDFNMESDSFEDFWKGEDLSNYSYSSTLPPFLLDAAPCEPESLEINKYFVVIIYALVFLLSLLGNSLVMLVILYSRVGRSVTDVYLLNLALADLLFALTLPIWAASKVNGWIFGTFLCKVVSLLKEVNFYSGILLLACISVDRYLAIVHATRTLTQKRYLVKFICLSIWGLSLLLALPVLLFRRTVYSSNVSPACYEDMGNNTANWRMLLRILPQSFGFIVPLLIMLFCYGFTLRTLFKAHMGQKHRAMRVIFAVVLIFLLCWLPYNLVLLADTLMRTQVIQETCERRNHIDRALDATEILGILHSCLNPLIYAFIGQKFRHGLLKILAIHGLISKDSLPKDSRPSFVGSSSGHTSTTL
UniProt O00574: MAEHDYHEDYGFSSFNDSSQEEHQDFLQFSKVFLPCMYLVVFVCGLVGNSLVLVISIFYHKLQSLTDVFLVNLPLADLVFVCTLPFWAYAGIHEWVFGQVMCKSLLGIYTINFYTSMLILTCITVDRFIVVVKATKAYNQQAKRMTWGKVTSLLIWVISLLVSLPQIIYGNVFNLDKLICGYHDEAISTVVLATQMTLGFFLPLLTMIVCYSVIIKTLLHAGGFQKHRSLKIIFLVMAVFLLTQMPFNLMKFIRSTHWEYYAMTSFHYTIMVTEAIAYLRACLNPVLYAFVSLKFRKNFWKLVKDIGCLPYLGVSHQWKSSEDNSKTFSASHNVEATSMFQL

T1: α1B-adrenergic receptor (α1B-AR) (human (endogenous in THP-1)) (UniProt P35368)
T1 sequence: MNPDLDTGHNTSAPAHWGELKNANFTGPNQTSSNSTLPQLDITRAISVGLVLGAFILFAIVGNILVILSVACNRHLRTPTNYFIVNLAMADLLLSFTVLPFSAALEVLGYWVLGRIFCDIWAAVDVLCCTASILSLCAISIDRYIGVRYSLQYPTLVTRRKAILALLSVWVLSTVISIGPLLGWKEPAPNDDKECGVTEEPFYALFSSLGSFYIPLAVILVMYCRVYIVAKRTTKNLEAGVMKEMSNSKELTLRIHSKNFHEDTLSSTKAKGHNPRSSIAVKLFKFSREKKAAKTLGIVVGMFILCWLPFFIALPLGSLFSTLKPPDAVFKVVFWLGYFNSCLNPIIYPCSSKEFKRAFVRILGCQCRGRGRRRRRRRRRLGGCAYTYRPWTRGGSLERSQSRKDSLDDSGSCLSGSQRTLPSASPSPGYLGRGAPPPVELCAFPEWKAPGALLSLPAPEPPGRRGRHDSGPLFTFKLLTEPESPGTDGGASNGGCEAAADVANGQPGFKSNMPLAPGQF

T2: α1D-adrenergic receptor (α1D-AR) (human (endogenous in THP-1)) (UniProt P25100)
T2 sequence: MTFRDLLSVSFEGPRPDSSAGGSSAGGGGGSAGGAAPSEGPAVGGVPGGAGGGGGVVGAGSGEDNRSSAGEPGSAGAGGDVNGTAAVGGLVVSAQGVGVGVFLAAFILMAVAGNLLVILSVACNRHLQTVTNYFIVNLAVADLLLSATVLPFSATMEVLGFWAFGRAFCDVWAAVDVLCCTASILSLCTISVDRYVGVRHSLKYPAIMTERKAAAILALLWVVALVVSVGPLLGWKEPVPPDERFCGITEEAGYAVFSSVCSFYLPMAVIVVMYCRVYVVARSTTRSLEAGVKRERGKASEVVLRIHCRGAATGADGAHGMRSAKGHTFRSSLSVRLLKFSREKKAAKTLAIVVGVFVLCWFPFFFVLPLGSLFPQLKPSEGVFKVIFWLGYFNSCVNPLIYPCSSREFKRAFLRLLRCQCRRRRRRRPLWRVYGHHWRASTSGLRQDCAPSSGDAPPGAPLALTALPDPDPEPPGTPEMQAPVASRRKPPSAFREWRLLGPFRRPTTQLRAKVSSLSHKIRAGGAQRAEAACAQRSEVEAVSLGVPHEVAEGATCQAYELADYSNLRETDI


What was measured:
[1] = biological target: arginine vasopressin receptor 1A (AVPR1A) (human (endogenous in THP-1 and human monocytes)) (UniProt P37288); experiment: proximity ligation; Duolink PLA on freshly isolated human monocytes (CD14+/CD16-), endogenous receptors
[2] = biological target: T1, α1B-adrenergic receptor (α1B-AR) (human (endogenous in THP-1)); experiment: proximity ligation; Duolink PLA on fixed (4% paraformaldehyde) THP-1 cells, primary antibodies 1 μg/ml; also WT control clones, cells treated with vehicle, 10 μM aVP or 10 μM conivaptan (30 min, 37°C), NT or AVPR1A siRNA, and AVPR1A^KO and ADRA1B^KO clones
[3] = biological target: T2, α1D-adrenergic receptor (α1D-AR) (human (endogenous in THP-1)); experiment: as above
[4] = biological target: arginine vasopressin receptor 1A (AVPR1A) (human (endogenous in THP-1 and human monocytes)) (UniProt P37288); experiment: as above
[5] = biological target: AVPR1A C-terminally ligated to the energy donor Renilla luciferase (AVPR1A-Rluc) (UniProt P37288); experiment: FRET or BRET; saturation BRET in living HEK293T cells: fixed 5 ng AVPR1A-Rluc with increasing amounts of CR-YFP or mGlu1R-YFP; net BRET against YFP fluorescence/luminescence; n = 3 per receptor pair
[6] = biological target: AVPR1A C-terminally ligated to the energy donor Renilla luciferase (AVPR1A-Rluc) (UniProt P37288); experiment: FRET or BRET; BRET screening in living HEK293T cells: 5 ng AVPR1A-Rluc (donor) transfected with 25 ng CR-YFP (acceptor) or increasing amounts of mGlu1R-YFP (control); signals above the 99% prediction band of the mGlu1R control counted as positive; three independent screening experiments; coelenterazine H 5 μM

Molecule	binding [1]	binding [2]	binding [3]	binding [4]	binding [5]	binding [6]
CCR2-YFP (from UniProt P41597 1-374) (receptor)	–	–	–	–	binds	binds
CXCR3-YFP (from UniProt P49682 1-368) (receptor)	–	–	–	–	binds	binds
CXCR5-YFP (from UniProt P32302 1-372) (receptor)	–	–	–	–	binds	binds
chemokine (C-X-C motif) receptor 4 (CXCR4) (from UniProt P61073 1-352)	binds	binds	binds	binds	–	–
metabotropic glutamate receptor 1 (mGlu1R)-YFP (from UniProt Q13255 19-1194)	–	–	–	–	no binding	no binding
CCR1-YFP (receptor, UniProt P32246 1-355) METPNTTEDYDTTTEFDYGDATPCQKVNERAFGAQLLPPLYSLVFVIGLVGNILVVLVLVQYKRLKNMTSIYLLNLAISDLLFLFTLPFWIDYKLKDDWVFGDAMCKILSGFYYTGLYSEIFFIILLTIDRYLAIVHAVFALRARTVTFGVITSIIIWALAILASMPGLYFSKTQWEFTHHTCSLHFPHESLREWKLFQALKLNLFGLVLPLLVMIICYTGIIKILLRRPNEKKSKAVRLIFVIMIIFFLFWTPYNLTILISVFQDFLFTHECEQSRHLDLAVQVTEVIAYTHCCVNPVIYAFVGERFRKYLRQLFHRRVAVHLVKWLPFLSVDRLERVSSTSPSTGEHELSAGF	–	–	–	–	binds	binds
chemokine (C-C motif) receptor (CCR)1 (receptor, UniProt P32246 1-355) METPNTTEDYDTTTEFDYGDATPCQKVNERAFGAQLLPPLYSLVFVIGLVGNILVVLVLVQYKRLKNMTSIYLLNLAISDLLFLFTLPFWIDYKLKDDWVFGDAMCKILSGFYYTGLYSEIFFIILLTIDRYLAIVHAVFALRARTVTFGVITSIIIWALAILASMPGLYFSKTQWEFTHHTCSLHFPHESLREWKLFQALKLNLFGLVLPLLVMIICYTGIIKILLRRPNEKKSKAVRLIFVIMIIFFLFWTPYNLTILISVFQDFLFTHECEQSRHLDLAVQVTEVIAYTHCCVNPVIYAFVGERFRKYLRQLFHRRVAVHLVKWLPFLSVDRLERVSSTSPSTGEHELSAGF	binds	binds	binds	binds	–	–

Further lines, results first:

binding [1]	binding [2]	binding [3]	binding [4]	binding [5]	binding [6]	Molecule
binds	binds	binds	binds	–	–	CCR2 (from UniProt P41597 1-374) (receptor)
binds	–	–	binds	–	–	CCR8 (from UniProt P51685 1-355) (receptor)
–	–	–	–	binds	binds	CCR8-YFP (from UniProt P51685 1-355) (receptor)
–	–	–	–	binds	binds	CXCR2-YFP (from UniProt P25025 1-360) (receptor)
–	–	–	–	binds	binds	CXCR4-YFP (from UniProt P61073 1-352) (receptor)
–	–	–	–	–	binds	CXCR6-YFP (from UniProt O00574 1-342) (receptor)
–	–	–	–	binds	binds	CCR4-YFP (receptor, UniProt P51679 1-360) MNPTDIADTTLDESIYSNYYLYESIPKPCTKEGIKAFGELFLPPLYSLVFVFGLLGNSVVVLVLFKYKRLRSMTDVYLLNLAISDLLFVFSLPFWGYYAADQWVFGLGLCKMISWMYLVGFYSGIFFVMLMSIDRYLAIVHAVFSLRARTLTYGVITSLATWSVAVFASLPGFLFSTCYTERNHTYCKTKYSLNSTTWKVLSSLEINILGLVIPLGIMLFCYSMIIRTLQHCKNEKKNKAVKMIFAVVVLFLGFWTPYNIVLFLETLVELEVLQDCTFERYLDYAIQATETLAFVHCCLNPIIYFFLGEKFRKYILQLFKTCRGLFVLCQYCGLLQIYSADTPSSSYTQSTMDHDLHDAL
–	binds	–	–	–	–	α1D-adrenergic receptor (α1D-AR) (receptor, UniProt P25100 1-572) MTFRDLLSVSFEGPRPDSSAGGSSAGGGGGSAGGAAPSEGPAVGGVPGGAGGGGGVVGAGSGEDNRSSAGEPGSAGAGGDVNGTAAVGGLVVSAQGVGVGVFLAAFILMAVAGNLLVILSVACNRHLQTVTNYFIVNLAVADLLLSATVLPFSATMEVLGFWAFGRAFCDVWAAVDVLCCTASILSLCTISVDRYVGVRHSLKYPAIMTERKAAAILALLWVVALVVSVGPLLGWKEPVPPDERFCGITEEAGYAVFSSVCSFYLPMAVIVVMYCRVYVVARSTTRSLEAGVKRERGKASEVVLRIHCRGAATGADGAHGMRSAKGHTFRSSLSVRLLKFSREKKAAKTLAIVVGVFVLCWFPFFFVLPLGSLFPQLKPSEGVFKVIFWLGYFNSCVNPLIYPCSSREFKRAFLRLLRCQCRRRRRRRPLWRVYGHHWRASTSGLRQDCAPSSGDAPPGAPLALTALPDPDPEPPGTPEMQAPVASRRKPPSAFREWRLLGPFRRPTTQLRAKVSSLSHKIRAGGAQRAEAACAQRSEVEAVSLGVPHEVAEGATCQAYELADYSNLRETDI
–	–	–	–	no binding	no binding	CXCR1-YFP (receptor, UniProt P25024 1-350) MSNITDPQMWDFDDLNFTGMPPADEDYSPCMLETETLNKYVVIIAYALVFLLSLLGNSLVMLVILYSRVGRSVTDVYLLNLALADLLFALTLPIWAASKVNGWIFGTFLCKVVSLLKEVNFYSGILLLACISVDRYLAIVHATRTLTQKRHLVKFVCLGCWGLSMNLSLPFFLFRQAYHPNNSSPVCYEVLGNDTAKWRMVLRILPHTFGFIVPLFVMLFCYGFTLRTLFKAHMGQKHRAMRVIFAVVLIFLLCWLPYNLVLLADTLMRTQVIQESCERRNNIGRALDATEILGFLHSCLNPIIYAFIGQNFRHGFLKILAMHGLVSKEFLARHRVTSYTSSSVNVSSNL
no binding	–	–	no binding	–	–	chemokine (C-X-C motif) receptor (CXCR)1 (receptor, UniProt P25024 1-350) MSNITDPQMWDFDDLNFTGMPPADEDYSPCMLETETLNKYVVIIAYALVFLLSLLGNSLVMLVILYSRVGRSVTDVYLLNLALADLLFALTLPIWAASKVNGWIFGTFLCKVVSLLKEVNFYSGILLLACISVDRYLAIVHATRTLTQKRHLVKFVCLGCWGLSMNLSLPFFLFRQAYHPNNSSPVCYEVLGNDTAKWRMVLRILPHTFGFIVPLFVMLFCYGFTLRTLFKAHMGQKHRAMRVIFAVVLIFLLCWLPYNLVLLADTLMRTQVIQESCERRNNIGRALDATEILGFLHSCLNPIIYAFIGQNFRHGFLKILAMHGLVSKEFLARHRVTSYTSSSVNVSSNL
